# This is one part of the list.
# Key:
# Experiment in all cases: glycan array binding signal (z-score within array); higher = stronger binding
# Details in all cases: glycan notation: IUPAC condensed, linker removed
# GalNAc(b1-3)GalNAc = target: GalNAc(b1-3)GalNAc
# Summary of the method: (§1)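 The Consortium for Functional Glycomics database supplied 3228 glycan arrays, of which those lacking an available protein sequence were dropped. The binding signal, a within-array Z-score, was averaged across arrays of the same protein sequence and across linkers. Negative scores can be read as non-binding.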
# GalNAc(b1-3)GlcNAc = target: GalNAc(b1-3)GlcNAc
# Summary of the method: as §1
# GalNAc(b1-4)Gal(b1-4)Glc = target: GalNAc(b1-4)Gal(b1-4)Glc
# Summary of the method: as §1
# GalNAc(b1-4)GlcNAc = target: GalNAc(b1-4)GlcNAc
# Summary of the method: as §1
# [1] = target: GalNAc(b1-4)GlcNAc(b1-2)Man
# Summary of the method: as §1
# [2] = target: GalNAc(b1-4)GlcNAc(b1-2)Man(a1-3)[GalNAc(b1-4)GlcNAc(b1-2)Man(a1-6)]Man(b1-4)GlcNAc(b1-4)GlcNAc
# Summary of the method: as §1
# [3] = target: GalNAc(b1-4)GlcNAc(b1-3)GalNAc(b1-4)GlcNAc
# Summary of the method: as §1
# GalNAc(b1-4)GlcNAc6S = target: GalNAc(b1-4)GlcNAc6S
# Summary of the method: as §1
# GalNAc(b1-6)GalNAc = target: GalNAc(b1-6)GalNAc
# Summary of the method: as §1
# GalNAc3S(b1-4)GlcNAc = target: GalNAc3S(b1-4)GlcNAc
# Summary of the method: as §1
# GalNAc3S(b1-4)GlcNAc3S = target: GalNAc3S(b1-4)GlcNAc3S
# Summary of the method: as §1
# [4] = target: GalNAc3S(b1-4)[Fuc(a1-3)]GlcNAc
# Summary of the method: as §1
# GalNAc4S6S(b1-4)GlcNAc = target: GalNAc4S6S(b1-4)GlcNAc
# Summary of the method: as §1
# GalNAc6S(b1-4)GlcNAc = target: GalNAc6S(b1-4)GlcNAc
# Summary of the method: as §1
# [5] = target: Glc(a1-2)Glc(a1-3)Glc(a1-3)Man(a1-2)Man(a1-2)Man(a1-3)[Man(a1-2)Man(a1-3)[Man(a1-2)Man(a1-6)]Man(a1-6)]Man(b1-4)GlcNAc
# Summary of the method: as §1
# [6] = target: Glc(a1-2)Glc(a1-3)Glc(a1-3)Man(a1-2)Man(a1-2)Man(a1-3)[Man(a1-3)[Man(a1-6)]Man(a1-6)]Man(b1-4)GlcNAc
# Summary of the method: as §1
# [7] = target: Glc(a1-3)Glc(a1-3)Man(a1-2)Man(a1-2)Man(a1-3)[Man(a1-2)Man(a1-3)[Man(a1-2)Man(a1-6)]Man(a1-6)]Man(b1-4)GlcNAc(b1-4)GlcNAc
# Summary of the method: as §1
# [8] = target: Glc(a1-3)Glc(a1-3)Man(a1-2)Man(a1-2)Man(a1-3)[Man(a1-3)[Man(a1-6)]Man(a1-6)]Man(b1-4)GlcNAc
# Summary of the method: as §1
# [9] = target: Glc(a1-3)Man(a1-2)Man(a1-2)Man(a1-3)[Man(a1-2)Man(a1-3)[Man(a1-2)Man(a1-6)]Man(a1-6)]Man(b1-4)GlcNAc(b1-4)GlcNAc
# Summary of the method: as §1
# Glc(a1-4)Glc = target: Glc(a1-4)Glc
# Summary of the method: as §1
# [10] = target: Glc(a1-4)Glc(a1-4)Glc(a1-4)Glc
# Summary of the method: as §1
# Glc(a1-6)Glc(a1-6)Glc = target: Glc(a1-6)Glc(a1-6)Glc
# Summary of the method: as §1
# [11] = target: Glc(a1-6)Glc(a1-6)Glc(a1-6)Glc
# Summary of the method: as §1
# [12] = target: Glc(a1-6)Glc(a1-6)Glc(a1-6)Glc(a1-6)Glc(a1-6)Glc
# Summary of the method: as §1
# [13] = target: Glc(b1-3)Glc(b1-3)Glc(b1-3)Glc(b1-3)Glc(b1-3)Glc
# Summary of the method: as §1
# Glc(b1-4)Glc = target: Glc(b1-4)Glc
# Summary of the method: as §1
# Glc(b1-6)Glc = target: Glc(b1-6)Glc
# Summary of the method: as §1
# [14] = target: Glc(b1-6)Glc(b1-6)Glc(b1-6)Glc(b1-6)Glc(b1-6)Glc
# Summary of the method: as §1
# GlcA(b1-3)Gal = target: GlcA(b1-3)Gal
# Summary of the method: as §1
# GlcA(b1-3)GlcNAc = target: GlcA(b1-3)GlcNAc
# Summary of the method: as §1
# [15] = target: GlcA(b1-3)GlcNAc(b1-4)GlcA(b1-3)GlcNAc(b1-4)GlcA(b1-3)GlcNAc(b1-4)GlcA(b1-3)GlcNAc(b1-4)GlcA(b1-3)GlcNAc(b1-4)GlcA(b1-3)GlcNAc(b1-4)GlcA(b1-3)GlcNAc(b1-4)GlcA(b1-3)GlcNAc
# Summary of the method: as §1
# GlcA(b1-6)Gal = target: GlcA(b1-6)Gal
# Summary of the method: as §1
# [16] = target: GlcA3S(b1-3)Gal(b1-4)GlcNAc(b1-2)Man
# Summary of the method: as §1
# [17] = target: GlcA3S(b1-3)Gal(b1-4)GlcNAc(b1-3)Gal(b1-4)Glc
# Summary of the method: as §1
# [18] = target: GlcNAc(a1-3)Gal(b1-4)GlcNAc
# Summary of the method: as §1
# [19] = target: GlcNAc(a1-4)Gal(b1-3)GlcNAc
# Summary of the method: as §1
# [20] = target: GlcNAc(a1-4)Gal(b1-4)GalNAc
# Summary of the method: as §1
# [21] = target: GlcNAc(a1-4)Gal(b1-4)GlcNAc
# Summary of the method: as §1
# [22] = target: GlcNAc(a1-4)Gal(b1-4)GlcNAc(b1-3)Gal(b1-4)Glc
# Summary of the method: as §1
# [23] = target: GlcNAc(a1-4)Gal(b1-4)GlcNAc(b1-3)Gal(b1-4)GlcNAc
# Summary of the method: as §1
# [24] = target: GlcNAc(a1-4)Gal(b1-4)GlcNAc(b1-3)Gal(b1-4)GlcNAc(b1-3)Gal(b1-4)GlcNAc
# Summary of the method: as §1
# [25] = target: GlcNAc(a1-4)Gal(b1-4)GlcNAc(b1-3)Gal(b1-4)[Fuc(a1-3)]GlcNAc(b1-3)Gal(b1-4)[Fuc(a1-3)]GlcNAc
# Summary of the method: as §1
# [26] = target: GlcNAc(a1-6)Gal(b1-4)GlcNAc
# Summary of the method: as §1
# [27] = target: GlcNAc(b1-2)Gal(b1-3)GalNAc
# Summary of the method: as §1
# [28] = target: GlcNAc(b1-2)Man(a1-3)[GlcNAc(b1-2)Man(a1-6)]Man(b1-4)GlcNAc(b1-4)GlcNAc
# Summary of the method: as §1
binder,measurement,setting,value
Banana lectin (Musa acuminata) (protein) MNGAIKVGAWGGNGGSAFDMGPAYRIISVKIFSGDVVDGVDVTFTYYGKTETRHYGGSGGTPHEIVLQEGEYLVGMAGEVANYHGAVVLGKLGFSTNKKAYGPFGNTGGTPFSLPIAAGKISGFFGRGGKFLDAIGVYLEPLEHHHHHH,glycan array binding signal (z-score),GalNAc(b1-3)GalNAc,-0.221
same,glycan array binding signal (z-score),GalNAc(b1-3)GlcNAc,-0.193
same,glycan array binding signal (z-score),GalNAc(b1-4)Gal(b1-4)Glc,-0.153
same,glycan array binding signal (z-score),GalNAc(b1-4)GlcNAc,-0.198
same,glycan array binding signal (z-score),[1],-0.207
same,glycan array binding signal (z-score),[2],-0.18
same,glycan array binding signal (z-score),[3],-0.261
same,glycan array binding signal (z-score),GalNAc(b1-4)GlcNAc6S,-0.209
same,glycan array binding signal (z-score),GalNAc(b1-6)GalNAc,-0.221
same,glycan array binding signal (z-score),GalNAc3S(b1-4)GlcNAc,-0.23
same,glycan array binding signal (z-score),GalNAc3S(b1-4)GlcNAc3S,-0.196
same,glycan array binding signal (z-score),[4],-0.178
same,glycan array binding signal (z-score),GalNAc4S6S(b1-4)GlcNAc,-0.203
same,glycan array binding signal (z-score),GalNAc6S(b1-4)GlcNAc,-0.054
same,glycan array binding signal (z-score),[5],1.56
same,glycan array binding signal (z-score),[6],1.31
same,glycan array binding signal (z-score),[7],1.42
same,glycan array binding signal (z-score),[8],0.946
same,glycan array binding signal (z-score),[9],1.43
same,glycan array binding signal (z-score),Glc(a1-4)Glc,-0.155
same,glycan array binding signal (z-score),[10],-0.205
same,glycan array binding signal (z-score),Glc(a1-6)Glc(a1-6)Glc,-0.209
same,glycan array binding signal (z-score),[11],-0.188
same,glycan array binding signal (z-score),[12],1.57
same,glycan array binding signal (z-score),[13],-0.842
same,glycan array binding signal (z-score),Glc(b1-4)Glc,-0.206
same,glycan array binding signal (z-score),Glc(b1-6)Glc,-0.204
same,glycan array binding signal (z-score),[14],-0.99
same,glycan array binding signal (z-score),GlcA(b1-3)Gal,-0.191
same,glycan array binding signal (z-score),GlcA(b1-3)GlcNAc,-0.202
same,glycan array binding signal (z-score),[15],-0.99
same,glycan array binding signal (z-score),GlcA(b1-6)Gal,-0.195
same,glycan array binding signal (z-score),[16],-0.202
same,glycan array binding signal (z-score),[17],-0.216
same,glycan array binding signal (z-score),[18],0.842
same,glycan array binding signal (z-score),[19],0.861
same,glycan array binding signal (z-score),[20],0.095
same,glycan array binding signal (z-score),[21],0.495
same,glycan array binding signal (z-score),[22],0.518
same,glycan array binding signal (z-score),[23],0.681
same,glycan array binding signal (z-score),[24],0.556
same,glycan array binding signal (z-score),[25],0.311
same,glycan array binding signal (z-score),[26],-0.224
same,glycan array binding signal (z-score),[27],-0.212
same,glycan array binding signal (z-score),[28],0.105

# From the supplement of paper PMC8728848
